Data: PubChem BioAssay AID485364 (National Center for Advancing Translational Sciences (NCATS), 2010)
The campaign covered roughly 360,000 compounds. About 11,000 (3.1%) were called active. The inconclusive results got no clear call from the source; some entries with a clear call stand among them for comparison. Calls follow the shape of the dose curve; as a rule, active = well fitted inhibition curve with a large enough effect; inconclusive = small, poorly fitted or top-dose-only effect; inactive = no such curve, though single readings can be large or run the other way. Potencies of inconclusive entries are left out as doubtful fits.

target: Schistosoma mansoni thioredoxin glutathione reductase (TGR) (UniProt Q962Y6); assay: qHTS Assay for the Inhibitors of Schistosoma Mansoni Peroxiredoxins; settings: purified TGR, DTNB reduction, TNB absorbance 405 nm; activity change, negative = inhibition: at 114 µM (top of the series) unless noted; also: nearly all actives have a fitted effect of over 60% in size
Outline: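 Kinetic colorimetric format: TGR-catalysed, NADPH-driven DTNB reduction monitored via TNB absorbance. Enzyme dispensed at 20 nM; compound exposure 15 min at room temperature before reaction start.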
% is scaled to controls: 0 for no effect and ±100 for the full control effect; potency is read from the fitted curve at half-maximal effect; tags tell the direction and shape of the fitted curve.

Row | SMILES | Potency | activity change, negative = inhibition
1 | COC(=O)c1c(C)[nH]c(C(=O)CSc2ncnc3sc(-c4ccccc4)cc23)c1C | inactive | –
2 | O=C(NCc1ccc(F)cc1)C1CCCN(C(=O)Nc2ccccc2)C1 (stereo unspecified) | inconclusive [inhibitor, partial curve, poor fit] | –
3 | CCOc1ccccc1CNCCc1ccc2c(c1)OCO2 | inconclusive [inhibitor, partial curve] | –
4 | Cc1ccc(S(=O)(=O)N2CCOCC2)cc1NC(=O)COC(=O)CNC(=O)c1ccc(C(C)(C)C)cc1 | inconclusive [inhibitor, partial curve] | –
5 | Cc1cccc(-c2nc(CS(=O)CC(=O)NCCCSC3CCCCC3)c(C)o2)c1 (stereo unspecified) | – | inconclusive: -36% [inhibitor]
6 | O=C(NCc1nnc(SCc2ccccc2)n1-c1ccc(F)cc1)C12CC3CC(CC(C3)C1)C2 | inactive | –
7 | COc1ccccc1NC(=O)c1nc(SCc2ccc(F)cc2)ncc1Cl | inconclusive [inhibitor, single point] | –
8 | CNC(=O)c1c(NC(=O)c2ccc(S(=O)(=O)N3CCCC(C)C3)cc2)sc2c1CCC2 (stereo unspecified) | inconclusive [inhibitor, partial curve] | –
9 | CCc1ccc(CN2CCC(n3nccc3NC(=O)c3ccccc3)CC2)o1 | inconclusive [inhibitor, full curve] | –
10 | Cc1c(-c2ccc(Cl)cc2)c(=O)oc2c(CN3CCOCC3)c(O)ccc12 | inactive | –
11 | CC(=O)[C@H]1[C@H]([C@H](O)[C@H](O)CO)O[C@](O)(C(=O)O)C[C@@H]1O | active: 12.6 µM | –
12 | COc1ccc(-c2cc(C(F)(F)F)nc(NCCc3ccccc3)n2)cc1 | inactive | –
13 | COc1ccccc1/C=C/c1nc(C#N)c(N2CCN(c3ccccc3)CC2)o1 | inactive | –
14 | CCn1cc(C(=O)NCc2ccc(C)o2)c2cc(OC)c(OC)cc2c1=O | inconclusive [inhibitor, full curve, poor fit] | –
15 | COc1cc(C(=O)O/N=C2\C=CC(=O)C(C)=C2)cc(OC)c1OC | active: 3.16 µM | –
16 | CC(=O)c1ccc(-c2ccc(C(=O)N(C)Cc3nc4ccccc4c(=O)[nH]3)o2)cc1 | inconclusive [inhibitor, partial curve] | –
17 | COC(=O)c1cc(NC(=O)c2ccc(C)cc2)c(=O)oc1C | inactive | –
18 | Cc1ccc(S(=O)(=O)N(C)CC(=O)Nc2cccc(C)n2)cc1 | inactive | –
19 | O=C(NN1C(=O)c2ccccc2NC1c1ccc([N+](=O)[O-])o1)c1ccc(Br)cc1 (stereo unspecified) | inconclusive [inhibitor, partial curve] | –
20 | O=C1S/C(=C\C=C\c2ccco2)C(=O)N1c1ccc(O)cc1 | inconclusive [inhibitor, partial curve] | –
21 | CSC1=NSC2=NC(=O)/C(=C/c3coc4ccc(O)cc4c3=O)C(=N)N12 | inconclusive [inhibitor, partial curve] | –
22 | COCCCNc1oc(COc2ccc(Cl)cc2Cl)nc1C#N | active: 20 µM | –
23 | O=C(CC1S/C(=N/N=C/c2cccs2)NC1=O)Nc1ccc(Cl)cc1 (stereo unspecified) | inactive | –

Row | SMILES | Potency | activity change, negative = inhibition
24 | O=C(O)/C=C/C(=O)NCc1ccccc1 | active: 50.1 µM | –
25 | CC(=O)Nc1ccc(S(=O)(=O)N2CCCN(S(=O)(=O)c3ccc(NC(C)=O)cc3)CC2)cc1 | inconclusive [inhibitor, single point] | –
26 | O=C(CSc1ccc(Cl)cc1)N/N=C/c1ccc([N+](=O)[O-])o1 | active: 5.62 µM | –
27 | Cc1ccn2c(=O)nc(SCC(=O)NCc3ccco3)nc2c1 | active: 35.5 µM | –
28 | Cc1cc(C(=O)COc2cccc(-n3cnnn3)c2)c(C)n1-c1ccccc1 | inconclusive [inhibitor, single point] | –
29 | Cc1ccc(NC(=O)c2ccc([N+](=O)[O-])o2)cc1C | inconclusive [inhibitor, full curve] | –
30 | Cc1ccc(S(=O)(=O)c2nc(Nc3nccs3)sc2Cl)cc1 | inactive | –
31 | CCC(C(N)=NCCc1ccc(OC)c(OC)c1)c1ccccc1 (stereo unspecified) | inactive | –
32 | COc1cc(/C=N/NC(=O)c2c(C)nc3ccc(Cl)cn23)cc(OC)c1OC | inactive | –
33 | O=C(Nc1ncc(Cc2ccccc2Cl)s1)C1=NCCN1 | inactive | –
34 | O=C(/C=C/c1ccccc1)c1ccc2c(c1)OCCCCO2 | inactive | –
35 | O=C(Cn1ncc2c1-c1ccccc1OC2)N(Cc1ccco1)C1CCCCC1 | inconclusive [inhibitor, partial curve, poor fit] | –
36 | O=C1CCCN1CCCNc1ncnc2c1[nH]c1ccc(Cl)cc12 | inactive | –
37 | COc1ccc(C(C#N)(CC(=O)O)c2cnccn2)cc1OC (stereo unspecified) | inconclusive [inhibitor, full curve] | –
38 | Cc1oc(/N=C/c2c(O)ccc3ccccc23)c(C#N)c1C | inconclusive [inhibitor, single point] | –
39 | COc1ccc(C(=O)[C@H]2[C@H]3C(=O)N(c4ccccc4)C(=O)[C@H]3C3C=CC=NN32)cc1 (stereo partly specified) | inconclusive [inhibitor, partial curve] | –
40 | Cc1cccc(-c2nc(CS(=O)CC(=O)N3CCc4ccccc4C3)c(C)o2)c1 (stereo unspecified) | inconclusive [inhibitor, full curve] | –
41 | O=C(Nc1nc2ccsc2c(=O)s1)c1ccc(F)cc1Cl | inconclusive [inhibitor, single point] | –
42 | Cc1cc(Cl)nc(Cl)c1C(=O)NC(=O)NCCC(C)C | inconclusive [inhibitor, single point] | –
43 | CCN(CC)c1ccc(NS(=O)(=O)c2ccc(-c3coc(C)n3)cc2)c(C)c1 | inconclusive [inhibitor, partial curve] | –
44 | CCCC(O)(CCN1CCOCC1)c1ccc(Br)cc1 (stereo unspecified) | inconclusive [inhibitor, full curve] | –
45 | COc1ccccc1C1CC(c2ccco2)=NN1S(C)(=O)=O (stereo unspecified) | inconclusive [inhibitor, single point] | –
46 | CCN1C(=O)c2ccccc2S(=O)(=O)c2ccc(C(=O)NCCCN(CC(C)C)CC(C)C)cc21 | inconclusive [inhibitor, partial curve] | –
